# Inconclusive means that the source gave no clear call. Such entries were picked first, then a sample of the others. For part of these data: Potencies of inconclusive entries are doubtful fits and often do not repeat. A structure can be active in one record and inactive in another. Active and inactive are the calls of the source. Unless noted, calls come from the whole dose curve; as a rule, active = well fitted curve in the direction sought with a large enough effect in the repeat runs; inconclusive = weak or mixed curves; inactive = no such curve, though single readings can be large; an effect the other way counts as inactive or inconclusive.
# How the values were obtained:
# [1] = target: Estrogen receptor beta (Homo sapiens) (UniProt Q92731); test: qHTS assay to identify small molecule antagonists of the estrogen receptor beta (ER-beta) signaling pathway (AID 1259378; active = well fitted inhibition curve with a large enough effect in the signal ratio in the repeat runs, not every such curve was filed as active; inconclusive = weak or mixed curves, or effect the other way; inactive = no such curve, though single readings can be large or run the other way; the % refers to the signal ratio; for activity, negative = inhibition: % is set by controls: 0 for no effect and ±100 for the full control effect); conditions: ER-beta-UAS-bla HEK293T, beta-lactamase FRET ratio, 16 h; activity, negative = inhibition: at 92.4 µM (top of the series) unless noted
# Method in brief: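 Antagonist mode: compounds added to beta-lactamase reporter HEK293T ER-beta-UAS cells stimulated with E2 (1nM final), 16 hr at 37C. LiveBLAzer B/G FRET substrate, 2 hours room temperature, fluorescence read-out.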
# [2] = qHTS assay to identify small molecule agonists of the androgen receptor (AR) signaling pathway in the presence of an antagonist - cell viability counter screen (AID 1259379); note: nearly all actives have a fitted effect of over 25% in size
# Method in brief: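 MDA-kb2 cells (MMTV-luciferase, AR/GR), 3,000/well, 5 h attachment, then 3.0 µM nilutamide (final) and compounds at 15 concentrations. Viability by CellTiter-Fluor fluorescence after 16 h at 37 °C, 0% CO2, in the reporter wells.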
# [3] = qHTS assay to identify small molecule agonists of the estrogen receptor beta (ER-beta) signaling pathway - cell viability counter screen (AID 1259380); note: nearly all actives have a fitted effect of over 30% in size
# Method in brief: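 ER-beta-UAS-bla HEK293T cells in medium with 2% charcoal-stripped FBS, pre-incubated 6 hr, then treated 16 hr at 37C. Cytotoxicity read in the same wells by CellTiter-Glo luminescence after 30 min at room temperature.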
# [4] = target: Progesterone receptor (Homo sapiens) (UniProt P06401); test: qHTS assay to identify small molecule agonists of the progesterone receptor (PR) signaling pathway (AID 1346784; calls by dose curve; note: nearly all actives have a fitted effect of over 30% in size; for activation: % is set by controls: 0 for no effect and ±100 for the full control effect); conditions: PR-UAS-bla HEK293T, beta-lactamase FRET ratio, 16 h; activation: at 92.4 µM (top of the series) unless noted
# Method in brief: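 The screen uses PR-UAS-bla HEK 293T cells in charcoal-stripped serum (2%). Compounds are applied for 16 hr at 37C after a 6 hr pre-incubation, and reporter activity is detected with a FRET beta-lactamase substrate after 2 hr at room temperature.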
# [5] = qHTS assay to identify small molecule agonists of the estrogen receptor alpha (ER-alpha) signaling pathway in the presence of an antagonist - cell viability counter screen (AID 1259386);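 note: cells exposed to compounds for 22 h at 37 °C before the viability read; nearly all actives have a fitted effect of over 30% in size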
# Method in brief: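 Cell viability in VM7Luc4E2 cells (endogenous full-length ER-alpha) measured by CellTiter-Fluor fluorescence in the same wells as the luciferase screen. Cells pre-cultured 5 days in charcoal-stripped serum, then treated 22 h with compounds at 15 concentrations plus 10.0nM ICI-182,780.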
# [6] = target: Thyrotropin receptor (Homo sapiens) (UniProt P16473); test: qHTS assay to identify small molecule antagonists of the thyroid stimulating hormone receptor (TSHR) signaling pathway (AID 1259385; calls by dose curve; note: nearly all actives have a fitted effect of over 20% in size; for activity change, negative = inhibition: % is set by controls: 0 for no effect and ±100 for the full control effect); conditions: TSHR-HEK293 cAMP HTRF, TSH-stimulated antagonist mode; activity change, negative = inhibition: at 92.4 µM (top of the series) unless noted
# Method in brief: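 Antagonist mode: compound-treated TSHR-expressing HEK293 cells were stimulated with 1.5 ng/mL TSH (final) in presence of Ro20-1724 for 30 min at RT. HTRF cAMP detection after 1 h; each compound tested at 15 concentrations, triplicate.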
# [7] = qHTS assay to identify small molecule antagonists of the estrogen receptor beta (ER-beta) signaling pathway - cell viability counter screen (AID 1259382); note: nearly all actives have a fitted effect of over 55% in size
# Method in brief: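 ER-beta-UAS-bla HEK293T cells in 2% charcoal-stripped FBS medium, treated with compound plus 1 nM 17-beta-estradiol for 16 h at 37C. Viability read by CellTiter-Glo luminescence after 30 min at room temperature in the same wells.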
# Potency is the fitted concentration of half-maximal effect; tags give direction and shape of the fitted curve or compound fluorescence and quenching.
# Sequence of UniProt Q92731 (Q92731 whole entry, looked up): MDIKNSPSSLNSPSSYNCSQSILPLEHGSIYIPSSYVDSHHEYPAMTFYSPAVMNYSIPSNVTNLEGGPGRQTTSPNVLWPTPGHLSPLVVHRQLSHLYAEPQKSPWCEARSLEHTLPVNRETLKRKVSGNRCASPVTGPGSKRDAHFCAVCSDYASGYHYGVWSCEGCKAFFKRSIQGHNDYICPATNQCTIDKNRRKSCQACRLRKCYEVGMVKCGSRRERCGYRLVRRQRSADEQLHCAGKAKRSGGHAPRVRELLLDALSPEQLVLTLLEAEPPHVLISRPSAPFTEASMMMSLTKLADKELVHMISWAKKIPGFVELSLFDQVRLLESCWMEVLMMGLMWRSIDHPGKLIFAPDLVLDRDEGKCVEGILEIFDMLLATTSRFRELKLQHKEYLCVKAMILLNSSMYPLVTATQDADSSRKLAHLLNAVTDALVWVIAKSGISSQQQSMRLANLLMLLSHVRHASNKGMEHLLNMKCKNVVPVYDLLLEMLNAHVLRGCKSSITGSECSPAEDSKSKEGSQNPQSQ
# Sequence of UniProt P06401 (P06401 whole entry, looked up): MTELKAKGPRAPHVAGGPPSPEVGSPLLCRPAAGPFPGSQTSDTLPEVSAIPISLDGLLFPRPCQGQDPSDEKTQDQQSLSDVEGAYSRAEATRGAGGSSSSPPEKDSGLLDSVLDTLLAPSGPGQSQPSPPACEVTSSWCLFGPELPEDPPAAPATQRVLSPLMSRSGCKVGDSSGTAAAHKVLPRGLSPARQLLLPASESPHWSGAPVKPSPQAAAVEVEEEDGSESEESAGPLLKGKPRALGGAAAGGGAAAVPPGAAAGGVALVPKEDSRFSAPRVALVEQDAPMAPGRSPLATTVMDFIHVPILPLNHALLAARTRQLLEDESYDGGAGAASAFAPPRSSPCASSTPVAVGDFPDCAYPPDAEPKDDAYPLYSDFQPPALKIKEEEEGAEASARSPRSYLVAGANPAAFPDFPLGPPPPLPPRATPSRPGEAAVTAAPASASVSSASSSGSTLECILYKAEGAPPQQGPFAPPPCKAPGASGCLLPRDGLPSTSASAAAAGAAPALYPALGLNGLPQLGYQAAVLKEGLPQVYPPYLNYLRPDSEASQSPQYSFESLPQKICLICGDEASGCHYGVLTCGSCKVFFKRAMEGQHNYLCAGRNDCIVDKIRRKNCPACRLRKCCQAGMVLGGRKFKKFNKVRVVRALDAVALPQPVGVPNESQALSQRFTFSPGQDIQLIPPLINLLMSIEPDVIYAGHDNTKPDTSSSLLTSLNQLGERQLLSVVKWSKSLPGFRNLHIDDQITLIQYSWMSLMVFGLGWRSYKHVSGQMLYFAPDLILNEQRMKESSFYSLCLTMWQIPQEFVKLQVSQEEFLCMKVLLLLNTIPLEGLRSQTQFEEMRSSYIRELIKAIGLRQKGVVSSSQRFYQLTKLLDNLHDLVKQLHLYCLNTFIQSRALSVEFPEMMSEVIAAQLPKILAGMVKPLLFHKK
# Sequence of UniProt P16473 (P16473 whole entry, looked up): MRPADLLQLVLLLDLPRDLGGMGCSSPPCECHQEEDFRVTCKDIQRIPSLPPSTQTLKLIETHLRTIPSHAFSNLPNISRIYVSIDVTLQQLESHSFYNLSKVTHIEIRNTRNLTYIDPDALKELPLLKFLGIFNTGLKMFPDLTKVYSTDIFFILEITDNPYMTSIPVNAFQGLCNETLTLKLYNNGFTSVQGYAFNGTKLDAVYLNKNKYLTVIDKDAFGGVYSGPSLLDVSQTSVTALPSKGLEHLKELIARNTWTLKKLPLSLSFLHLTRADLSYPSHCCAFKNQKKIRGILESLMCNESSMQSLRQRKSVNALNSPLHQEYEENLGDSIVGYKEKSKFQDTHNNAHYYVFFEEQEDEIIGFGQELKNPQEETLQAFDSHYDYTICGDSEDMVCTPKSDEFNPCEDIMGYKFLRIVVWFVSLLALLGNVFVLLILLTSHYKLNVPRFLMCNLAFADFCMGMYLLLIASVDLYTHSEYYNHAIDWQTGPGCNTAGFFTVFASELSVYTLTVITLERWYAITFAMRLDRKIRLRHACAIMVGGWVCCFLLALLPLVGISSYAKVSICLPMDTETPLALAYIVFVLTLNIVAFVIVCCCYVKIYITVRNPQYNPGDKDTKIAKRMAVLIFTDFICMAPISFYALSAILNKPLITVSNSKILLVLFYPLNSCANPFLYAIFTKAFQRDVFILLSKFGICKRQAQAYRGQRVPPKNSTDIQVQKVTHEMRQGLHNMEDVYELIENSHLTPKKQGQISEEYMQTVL
structure (smiles),measurement,setting,value
CC(C)COCC(CN(Cc1ccccc1)c1ccccc1)N1CCCC1 (centres undefined),Potency,[1],"inconclusive: 26.6 µM [inhibitor, partial curve]"
same,Potency,[2],active: 26.6 µM
same,Potency,[3],active: 29.8 µM
same,Potency,[4],"inconclusive: 33.5 µM [cytotoxic, single point]"
CN(C)c1ccc(O)c2c1C[C@H]1C[C@H]3[C@H](N(C)C)C(=O)C(C(N)=O)=C(O)[C@@]3(O)C(=O)C1=C2O,Potency,[1],"inconclusive: 23.7 µM [activator, partial curve]"
same,Potency,[2],"inconclusive: 38.6 µM [cytotoxic, partial curve]"
same,Potency,[5],"inconclusive: 48.6 µM [cytotoxic, partial curve]"
CN(C)CC/C=C1\c2ccccc2Sc2ccc(Cl)cc21,Potency,[1],inconclusive: 21.1 µM [partial curve]
same,Potency,[2],active: 29.8 µM
same,Potency,[6],active: 26.6 µM
CC(C=O)Cc1ccc(C(C)C)cc1 (centres undefined),Potency,[1],inactive
same,Potency,[3],inactive
CC[N+](CC)(CC)CCOc1ccc(/C=C/c2ccccc2)cc1,"activity, negative = inhibition",[1],inconclusive: -28% [at 42.5 µM]
same,Potency,[3],"inconclusive: 6.68 µM [cytotoxic, full curve, poor fit]"
O=C1O[C@H](CO)[C@@H](O)[C@H](O)[C@H]1O,Potency,[1],inactive
same,Potency,[3],inactive
Oc1cc(Cl)cc(Cl)c1Cl,"activity, negative = inhibition",[1],inconclusive: -26.3%
same,Potency,[2],"inconclusive: 70.3 µM [cytotoxic, single point]"
same,Potency,[5],"inconclusive: 78.8 µM [cytotoxic, partial curve, poor fit]"
same,Potency,[4],"inconclusive: 31.4 µM [falling, full curve]"
N#Cc1cc(NC(=O)C(=O)O)c(Cl)c(NC(=O)C(=O)O)c1,"activity, negative = inhibition",[1],inconclusive: 27.6% [at 42.5 µM]
same,Potency,[3],"inconclusive: 33.5 µM [cytotoxic, single point]"
O=c1[nH]cc(F)c(=O)[nH]1,Potency,[1],"inconclusive: 17.9 µM [rising, full curve]"
same,Potency,[2],"inconclusive: 63.4 µM [cytotoxic, single point]"
same,Potency,[7],active: 14.2 µM
same,activation,[4],inconclusive: -9.65%
c1cc(N(CC2CO2)CC2CO2)ccc1Cc1ccc(N(CC2CO2)CC2CO2)cc1 (centres undefined),Potency,[1],active: 27.3 µM
same,Potency,[2],"inconclusive: 68.6 µM [cytotoxic, partial curve]"
same,"activity change, negative = inhibition",[6],inconclusive: -9.33%
same,Potency,[5],"inconclusive: 68.6 µM [cytotoxic, single point]"
O=C(CCc1ccc(O)cc1)c1c(O)cc(O)cc1O,"activity, negative = inhibition",[1],inconclusive: -61.4%
same,Potency,[2],inconclusive: 62.5 µM [cytotoxic]
same,Potency,[5],inconclusive: 70.1 µM [cytotoxic]
O=C1c2ccccc2C(=O)c2c1ccc(O)c2O,"activity, negative = inhibition",[1],inconclusive: -35.4% [at 42.5 µM]
same,Potency,[2],active: 23.7 µM
same,Potency,[6],"inconclusive: 33.5 µM [falling, single point]"
same,Potency,[5],active: 26.6 µM
COc1cc2c(cc1OC)C(C(C(=O)N(CCc1ccc(OC)c(OC)c1OC)CCc1ccc(OC)c(OC)c1OC)c1ccccc1)=NCC2 (centres undefined),Potency,[1],"inconclusive: 11.9 µM [inhibitor, full curve]"
same,Potency,[2],"inconclusive: 15 µM [cytotoxic, partial curve]"
same,Potency,[5],"inconclusive: 23.7 µM [cytotoxic, partial curve]"
O=C(CS)Nc1ccccc1,Potency,[1],inactive
same,Potency,[3],inactive
CCOC(=O)O[C@]1(C(=O)OCCl)CC[C@H]2[C@@H]3CCC4=CC(=O)C=C[C@]4(C)[C@H]3[C@@H](O)C[C@@]21C,Potency,[1],inactive
same,Potency,[3],active: 26.6 µM
CC(C)(C)c1csc(-c2cc3cc(OCc4ccccc4CC(=O)O)ccc3o2)n1,Potency,[1],"inconclusive: 3.06 µM [rising, full curve]"
same,Potency,[2],"inconclusive: 54.5 µM [cytotoxic, partial curve, poor fit]"
same,Potency,[6],inconclusive: 54.5 µM
same,Potency,[4],"inconclusive: 27.3 µM [cytotoxic, full curve, poor fit]"
CCO[Si](OCC)(OCC)OCC,Potency,[1],inactive
same,Potency,[3],inactive
O=C(O)c1cc(Cl)cc(Cl)c1O,"activity, negative = inhibition",[1],inconclusive: 5.89%
same,Potency,[3],"inconclusive: 43.3 µM [cytotoxic, partial curve]"
S=C([S-])NCCNC(=S)[S-].S=C([S-])NCCNC(=S)[S-].[Mn+2].[Zn+2],"activity, negative = inhibition",[1],inconclusive: -27.5% [at 42.5 µM]
same,Potency,[3],"inconclusive: 21.1 µM [rising, partial curve, poor fit]"

# Source: PubChem BioAssay (Tox21)
